Assay results: article PMC10492700

Target: His64 (UniProt position 64, ILNNGHAFNVE)
Assay: NMR
Conditions: 50 mM MES, MOPS, HEPES, TRIS/HCl or CAPS, zinc-loaded, folded
[1] = 308 K, not stated (50 mM buffer, no added salt mentioned), inhibitor-free, inward conformation (pKa,1)
[2] = 308 K, not stated (50 mM buffer, no added salt mentioned), inhibitor-free, outward conformation (pKa,2)

Carbonic anhydrase II (HCAII) H4A (Homo sapiens; H4A)
pKa [1]: 6.34 ± 0.12
pKa [2]: 7.53 ± 0.09

Carbonic anhydrase II (HCAII) Y7F (Homo sapiens; Y7F)
pKa [1]: 6.13 ± 0.13
pKa [2]: 7.54 ± 0.05

Carbonic anhydrase II (HCAII), wild type (Homo sapiens)
pKa (308 K, not stated (50 mM buffer), acetazolamide bound (10 mM inhibitor, displaces the zinc-bound water), inward conformation (pKa,1)): 6.27 ± 0.17
pKa (308 K, not stated (50 mM buffer), acetazolamide bound (10 mM inhibitor, displaces the zinc-bound water), outward conformation (pKa,2)): 7.43 ± 0.12
pKa (308 K, not stated (50 mM buffer), inhibitor-free, Hill model fit): 7.12 ± 0.04
pKa (308 K, not stated (50 mM buffer), inhibitor-free, higher macroscopic pKa, two-pKa fit): 7.62 ± 0.07
pKa (308 K, not stated (50 mM buffer), inhibitor-free, lower macroscopic pKa, two-pKa fit): 6.20 ± 0.13
pKa (308 K, not stated (50 mM buffer), inhibitor-free, single pKa model fit): 7.17 ± 0.03
pKa [1]: 6.25 ± 0.08
pKa [2]: 7.60 ± 0.06
pKa (313 K (Table 1), Methods and Fig. S2 say 314 K, not stated (50 mM buffer), inhibitor-free, inward conformation (pKa,1)): 6.05 ± 0.12
pKa (313 K (Table 1), Methods and Fig. S2 say 314 K, not stated (50 mM buffer), inhibitor-free, outward conformation (pKa,2)): 7.41 ± 0.07

Some values that stand alone complete this part of the results.
